± gives the standard deviation of the averaged measurements. The list shows a part of the results.
Tested on: PfAP2-LT AP2 domain (GST-tagged)
Assay: gcPBM binding intensity (ln(normalized median fluorescence intensity)); higher = stronger DNA binding
Method in brief: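 GST-fused DNA-binding domains of P. falciparum, expressed in E. coli, were applied at about 25 μg on average for 1 h to an Agilent 4 × 180k array of primer-extended double-stranded 36-bp intergenic genomic probes and negative controls. Binding intensity is the highest Masliner-normalised natural-log median intensity across replicate spots of either probe orientation, measured with Alexa488 anti-GST antibody and a 488 nm scan.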

Row | Sequence | gcPBM binding intensity (ln)
1 | TATATTATTAAGATATGTACATAATTATAAATTTAA [XGTACX_site6848] | 8.45 ± 0.45
2 | ATGAAAAAATTTATATGTACTTAAAATATAATCATA [XGTACX_site1228] | 8.41 ± 0.36
3 | ATAAATAAAGGACACACACACACACTAGAAAAAAAA [CACACA_site5450] | 10.2 ± 0.3
4 | AAAATAAAATTAGTTGCATGCAACTTAAACAGAAAT [TGCATGCA_site860] | 9.05 ± 0.46
5 | TTGTGCTTGATATCACGGACAAGCTCATATTATATA [XGTACX_site4553] | 8.68 ± 0.35
6 | AAAAATTTTATATTCACACACATATATATATATATA [CACACA_site624] | 9.63 ± 0.13
7 | TATTTTTATATTTTTGCACACATTCTTTACTCTTCA [CACACA_site2211] | 9.38 ± 0.39
8 | GATATATATTAATATACACACACACCGATATATATA [CACACA_site8462] | 9.72 ± 0.12
9 | TTTATATTTTATAAATTATTCATAAATATATTTGTA [TGCATGCA_negctrl_site175] | 8.29 ± 0.47
10 | AATAAATAGATAAGCACACAAGCATATAGACATATA [CACACA_site222] | 9.24 ± 0.47
11 | AAATTCCACCAACACACACACATATAAATAAATAAA [CACACA_site1233] | 9.86 ± 0.42
12 | TTTTGAAACATATGATGTACACGAACATTTAAAAAA [XGTACX_site474] | 8.51 ± 0.4
13 | TATAAATAAAAACACACACACACATATATATATATA [CACACA_site2268] | 10.2
14 | TATAAATATAAATATACACACATATTTATATTTATA [CACACA_site7053] | 8.72 ± 0.33
15 | CTCTATAAATGCTGCACACACATTTAATTATTTAAG [CACACA_site2582] | 9.14 ± 0.33
16 | TTTTACAATGAAAGGTGTACAAGTAACAGTAGAACA [XGTACX_site1528] | 9.02 ± 0.5
17 | AAATGAAATACATCCTGTACATAGTAATGCTAACAA [XGTACX_site6600] | 8.89 ± 0.42
18 | ATAAAAGATATTTTTACACACTTTTGATGAGATCGT [CACACA_site3053] | 8.91 ± 0.38
19 | ATACCAACATATTATACACACCTTTATATTTTTTTT [CACACA_site5217] | 9.06 ± 0.45
20 | TTCAAGGTTTTAGATTGTACAATTATTATATATATA [XGTACX_site8982] | 8.71 ± 0.46
21 | GGTTGTATAAGTTTTTGTACATATATATATATATAT [XGTACX_site7487] | 9.66 ± 0.38
22 | TGAGCATAAAAAGGGTGTACTTAAATATATTATATA [XGTACX_site7556] | 8.72 ± 0.57

Row | Sequence | gcPBM binding intensity (ln)
23 | GAATATAATCTGTATTGTACGAAAGTTGAACACTTG [XGTACX_site8895] | 8.74 ± 0.45
24 | TTGTATTATTATGTTGCACACATTTTATATAAAATA [CACACA_site3641] | 9.05 ± 0.38
25 | TTTAGATAATTCATTACACACATGTATTTATATATA [CACACA_site5847] | 8.96 ± 0.43
26 | TATATATATATATATATATATACAAATATATATTAT [CACACA_negctrl_site1729] | 9.4 ± 0.22
27 | TTTTTGTAAAAACACACACACAAACAGAAAAAATAA [CACACA_site2076] | 9.4 ± 0.25
28 | ATGGTAGTTCTCCATGCATGCCTTTTTATTATCATA [TGCATGCA_site681] | 9.17 ± 0.45
29 | TGTGCCCAAAATTATGCACACACCTAAAATTAATTT [CACACA_site2914] | 9.07 ± 0.33
30 | TTTTATCTTTTTTTATTTTAATGTATTATTTTTATG [XGTACX_negctrl_site24] | 8.62 ± 0.66
31 | ATATGTGTATGTGCGTGTACATATCTATACAGTTGT [XGTACX_site6540] | 9.24 ± 0.35
32 | ACTATTTAGTCTGGTGGTACTTTATATATAATTTCT [XGTACX_site5618] | 9.12 ± 0.42
33 | ATTATCATAATGTTCACACATATGGTATATATAGAT [CACACA_site6113] | 8.8 ± 0.31
34 | TAATAAGAAATAACAGGTACACATATATAAATATTA [XGTACX_site2976] | 8.96 ± 0.42
35 | ATATGTAGATGATATTATTACTTTTCAAAAATTCAA [CACACA_negctrl_site933] | 8.55 ± 0.49
36 | AAGTATAAAAAAAGGCGTACAAAAAAAAAAAAAAAA [XGTACX_site7309] | 8.59 ± 0.61
37 | TTTTTCATTAATACAAGTACAAAATGATGTTGACAT [XGTACX_site1475] | 8.5 ± 0.42
38 | ACTTTACAATATATATGTACATATTAATAAACATAT [XGTACX_site3689] | 8.94 ± 0.47
39 | GAGTTTTTTTAATGATGTACATTTTAAAAATAAACG [XGTACX_site1036] | 8.29 ± 0.39
40 | AAAATAATATATGTATGTACATATACACATATAGAA [XGTACX_site2218] | 8.91 ± 0.52
41 | AAATGTTATAACTCTTGAAAAAACAAAATATCATCA [CACACA_negctrl_site1156] | 8.53 ± 0.35
42 | AGAAACCTTGTTAGTTAGCATATATATATATATATA [CACACA_negctrl_site372] | 9.78 ± 0.028
43 | AAATATAAACGGCACACACACAAAAAAAGAAAAAAA [CACACA_site649] | 9.73 ± 0.42
44 | TATTTTATACATATTTTACACACTAATATATACATA [CACACA_site7998] | 8.82 ± 0.49

Row | Sequence | gcPBM binding intensity (ln)
45 | TTTATTATACAAAATTGTACTTTATAATTTTATGTA [XGTACX_site5846] | 8.56 ± 0.33
46 | AAATATTACGGAATAAAGAGCTTTTAAATAATTTTA [CACACA_negctrl_site1700] | 8.38 ± 0.52
47 | ATACAAAATTTTTAAGAACACACAAAAATGTACTAT [CACACA_site8817] | 8.85 ± 0.46
48 | TGAGGTAACTAAATATGTACGTAACGAAGATACATA [XGTACX_site8231] | 8.96 ± 0.5
49 | AAATATTTATAGGTTTGTACTTATAAATAAAAAAAA [XGTACX_site7360] | 8.48 ± 0.42
50 | TTTATAAAAATGAACACACACATATATATATATATA [CACACA_site3493] | 9.61 ± 0.29
51 | AATATGAAAAGATGAACAACAAAATGGAGAACAATA [GTGCAC_negctrl_site612] | 9 ± 0.49
52 | TTCTTGTATTTTCATAGTACATATAATGTCGTATTA [XGTACX_site600] | 8.88 ± 0.42
53 | AATCACAAATAAAATAATATGACACAATATAAAATA [CACACA_negctrl_site537] | 8.8 ± 0.52
54 | TACTTACACTGTTTTTGTACTTATTTCCCTTTTATT [XGTACX_site2158] | 9.14 ± 0.54
55 | TAATTTCTTATGTATTGTACAAATAATGTATGATAT [XGTACX_site270] | 8.69 ± 0.41
56 | GCGTTATTAAATAATTCACACACATATATATATATA [CACACA_site8711] | 9.68 ± 0.042
57 | GAACGCCATTCACATAAAGGGATACATAAATAAATA [XGTACX_negctrl_site330] | 8.64 ± 0.69
58 | AAGAAAAACTTTACGTGTACCAAACGTCATGCCAAC [XGTACX_site2575] | 8.81 ± 0.49
59 | TACAAGCCCAATTCAAGTACATATATATATATATAT [XGTACX_site5569] | 9.85 ± 0.14
60 | AGTTTGTCAATCAACACACACCTATTTATTATATAT [CACACA_site6030] | 9.12 ± 0.33
61 | TATTTATGTATATGCTGTACGCATTTGTGAAACATA [XGTACX_site4688] | 8.77 ± 0.47
62 | AACCAATTAGAAGGATCCAGAACTTATTTGTTTTTA [CACACA_negctrl_site1744] | 8.61 ± 0.48
63 | TAAACTTTCCAGTGTTGTACATAATAATTATTATAT [XGTACX_site8896] | 8.71 ± 0.4
64 | AAAGATATGAAATATACACACTTCTTTGGTATTATT [CACACA_site6352] | 8.86 ± 0.45
65 | ATTCATTCATATGTTACACACACACGCCCACATAAA [CACACA_site7513] | 9.72 ± 0.3
66 | TTATATATATATATATATATTTACATAATAATATGT [GTGCAC_negctrl_site388] | 9.05 ± 0.19

Row | Sequence | gcPBM binding intensity (ln)
67 | TAAAAAAAGGTTATTGGTACACACATATGTATATAT [XGTACX_site1029] | 9.09 ± 0.38
68 | TAATATTCAATTATACGTACACATATATATATATAT [XGTACX_site4245] | 9.405 ± 0.035
69 | TATGAAAGAAATAGTACACACATAAACATTTGTAAA [CACACA_site2783] | 9.14 ± 0.43
70 | GTTGCGTATATATACACACATACATATATATATATA [CACACA_site1607] | 9.695 ± 0.021
71 | TTATATAATAAAAATTGTACATATTATATATATATT [XGTACX_site3427] | 8.59 ± 0.42
72 | AAAAAAAAAAAAGAAACACACATATATATATATATA [CACACA_site140] | 9.9 ± 0.071
73 | GTTTGATTAAACTTGACACACATATATATAAATATA [CACACA_site1784] | 8.71 ± 0.44
74 | AGAAAATATACAAAACGTACTTATATATTATATCTA [XGTACX_site3104] | 8.66 ± 0.45
75 | GTTAGAGGGAAAAAGAGTACATATATGTGGATAATT [XGTACX_site2064] | 9.06 ± 0.43
76 | TCATATATCATAACAGTGCAAAAAAAAAAAAATTAT | 8.79 ± 0.49
77 | ACATATATATATAAATATATATATATATAAATATAT [CACACA_negctrl_site895] | 9.03 ± 0.28
78 | GTTGAACATAGATGCACACACATAAAATAAAAAAAA [CACACA_site5353] | 9.37 ± 0.42
79 | TGTTTAAATTTTTTGTTTTTTTTTTTATAAAGCAAA [TGCATGCA_negctrl_site313] | 8.01 ± 0.58
80 | TATATTTTTTTAAAAAGTACTTTGTATATATATATA [XGTACX_site1300] | 8.61 ± 0.42
81 | TGAAGGTCAGTTCACAGTACCCAGTAACTCTACGGA [XGTACX_site2554] | 8.62 ± 0.42
82 | TTGTTGTTATTTAAAACACACATCAATCATCTTAAC [CACACA_site1142] | 8.75 ± 0.35
83 | ATTTTTTTTTCTTTCGCACACGTGAAAGAATTTCTA [CACACA_site2052] | 8.96 ± 0.49
84 | TTAAATTAAAACAAATGTACAAAGTGCATATTTTTT [XGTACX_site8143] | 8.44 ± 0.49
85 | ATATTATATTATATAACACACATTTTTCATAACACT [CACACA_site407] | 8.95 ± 0.34
86 | ATAATTTAATACTAGTGTACAGAAAAAAAAAAAAAA [XGTACX_site6756] | 8.62 ± 0.52
87 | ATAAAAAAATAAATTAGTACATATATATATATATAT [XGTACX_site6971] | 9.51 ± 0.32
88 | TTACGCATACTAATTACACACAAATAGATGAATATA [CACACA_site1338] | 8.91 ± 0.38

— the supplement of paper PMC11417369
